# Reference: PubChem BioAssay AID1347120 (National Center for Advancing Translational Sciences (NCATS), 2019)
# Screen size: about 390,000 compounds; about 930 (0.24%) were called active. Inconclusive results, whose numbers are uncertain, are shown with a selection of clear calls. Calls follow the shape of the dose curve; as a rule, active = well fitted activation curve with a large enough effect; inconclusive = small, poorly fitted or top-dose-only effect; inactive = no such curve, though single readings can be large or run the other way. Potencies beside an inconclusive call are fits to weak or partial responses and may not hold up.
# Experiment: qHTS for Suppressors of FUS Proteinopathy: Primary screen using FUS-linked yeast assay; also: nearly all actives have a fitted effect of over 55% in size
# Settings: S. cerevisiae FUS-expressing, OD600, 24 h; Potency: growth rescue; series mostly up to 76.6 µM
# How it was run: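 Compound concentration series was pinned onto galactose-induced FUS-expressing yeast seeded at OD 0.005. Plates sat 24hr at 30C; absorbance at 600 nm gave growth. DMSO served as background control.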
# Potency is read from the fitted curve at half-maximal effect; tags tell the direction and shape of the fitted curve.
row,SMILES,Potency
1,Brc1ccc(C2C3=C(Nc4ncnn42)c2ccccc2OC3c2ccncc2)cc1 (centres undefined),"inconclusive: 35.5 µM [activator, partial curve, poor fit]"
2,Cc1ccc(NC(=O)OCCCN2C(=O)CCC23CCC(C)CC3)cc1C (centres undefined),"inconclusive: 25.1 µM [activator, partial curve, poor fit]"
3,COc1ccc(Nc2ccc3cc(S(=O)(=O)N4CCCC4)ccc3n2)cc1OC,"inconclusive: 22.4 µM [activator, partial curve, poor fit]"
4,Cc1ccc(C(C(=O)NCc2ccccc2)N(C(=O)c2csnn2)c2cccc3ccccc23)o1 (centres undefined),"inconclusive: 35.5 µM [activator, single point]"
5,Nc1cccc(-c2nc3ncccc3o2)c1,inactive
6,O=C(NCCC1=CCCCC1)NC12CC3CC(CC(C3)C1)C2,inactive
7,O=C(O)c1cccc(-c2csc(C(O)c3ccc(F)cc3)n2)c1 (centres undefined),inactive
8,CCOc1cccc(NC(=O)C2CCCN(S(=O)(=O)c3ccc(-n4cnnn4)cc3)C2)c1 (centres undefined),"inconclusive: 39.8 µM [activator, single point]"
9,CC(NC(=O)CCCN1C(=O)CCn2nc(-c3cn(C)c4ccccc34)cc21)c1ccccc1 (centres undefined),inactive
10,Cc1cc(NCCN(C)C)n2nc(-c3cccs3)cc2n1,inactive
11,O=S(=O)(c1ccccc1)c1nc(-c2ccco2)oc1NCCCn1ccnc1,"inconclusive: 4.47 µM [activator, partial curve, poor fit]"
12,C=CCN1C(=O)[C@@H]2Cc3c([nH]c4ccccc34)C(c3ccc(O)cc3)N2C1=S (some centres undefined),"inconclusive: 20 µM [activator, single point]"
13,COc1ccc(C2=NS(=O)(=O)N(C)C(C(=O)Nc3ccc(OC(F)(F)F)cc3)=C2)cc1,inactive
14,c1ccc(N2CCN(Cc3nnc(-c4ccc5c(c4)OCO5)o3)CC2)cc1,inactive
15,COC(=O)[C@]12C[C@H](CC(=O)NCCCCc3ccccc3)C(=O)N(Cc3ccc(Cl)cc3Cl)C1=C[C@H](C1CCCC1)O[C@@H]2C,"inconclusive: 12.6 µM [activator, partial curve]"
16,O=C(NCCn1cc(SCc2ccccc2)c2ccccc21)c1cccs1,"inconclusive: 28.2 µM [activator, single point]"
17,Cc1ccccc1CS(=O)(=O)Cc1ccc(C(=O)Nc2c(C)cccc2C)o1,inactive
18,Cc1ccc(C2C(C(=O)c3cccs3)=C(O)C(=O)N2c2cccc(C)n2)cc1 (centres undefined),"inconclusive: 35.5 µM [activator, partial curve, poor fit]"
19,CC(=O)c1cccc(NC(=O)c2ccc(Cl)c(S(=O)(=O)N3CCOCC3)c2)c1,inactive
20,CC(C)(C)C1CCc2c(sc(NC(=O)c3ccccc3F)c2C(=O)NCc2ccco2)C1 (centres undefined),inactive
21,N#CCCn1cc(C(CC(=O)c2ccccc2)C(=O)O)c2ccccc21 (centres undefined),"inconclusive: 3.55 µM [activator, full curve]"
22,CCOC(=O)CSc1nc(-c2ccc(F)cc2)cc(C(F)(F)F)c1C#N,inactive

row,SMILES,Potency
1,O=C(c1cccn1-c1nnc(N2CCCCC2)s1)N1CCN(c2ccc(Cl)cc2)CC1,"inconclusive: 50.1 µM [activator, single point]"
2,c1ccc2cc(-c3cc4ccccn4c3)ccc2c1,"inconclusive: 20 µM [activator, partial curve, poor fit]"
3,CN(C)c1ccc(C(=O)Nc2c(C(=O)NC(C)(C)C)oc3ccccc23)cc1,inactive
4,CCc1ccccc1N1CC(c2nc3ccccc3n2CCOc2ccc(Cl)c(C)c2)CC1=O (centres undefined),active: 25.1 µM
5,O=C(CCc1ccccc1)NNC(=O)c1ccc(Cl)cc1,inactive
6,COc1cc(NS(=O)(=O)c2ccc(Nc3nc(-c4ccccn4)cs3)cc2)nc(OC)n1,"inconclusive: 14.1 µM [activator, partial curve]"
7,C=CCC[C@H](CCCCC)OC(=O)/C=C/[C@@H](O)[C@H](O)C[C@@H](O)CC=C,"inconclusive: 15.8 µM [activator, single point]"
8,Cc1nc(N2CCN(C(=O)COc3ccccc3C)CC2)c2c3c(sc2n1)CCCC3,"inconclusive: 22.4 µM [activator, partial curve, poor fit]"
9,O=C(c1cccc(S(=O)(=O)NCc2ccccc2)c1)N1CCN(c2ccccc2Cl)CC1,"inconclusive: 17.8 µM [activator, partial curve, poor fit]"
10,O=C(COC(=O)/C=C/c1ccc(C(F)(F)F)cc1)NC1CCCC1,inactive
11,COc1ccc(CCNc2oc(COc3cccc(C)c3)nc2C#N)cc1OC,"inconclusive: 22.4 µM [activator, partial curve, poor fit]"
12,Cn1cc(C(c2ccccn2)c2cn(C)c3ccccc23)c2ccccc21,"inconclusive: 31.6 µM [activator, single point]"
13,O=c1cc(NCc2ccco2)[nH]c(=O)n1-c1ccc(Br)cc1,"inconclusive: 28.2 µM [activator, partial curve, poor fit]"
14,Cc1cc(C(=O)Nc2cccc(-c3ccc(N4CCOCC4)nn3)c2)ccc1[N+](=O)[O-],"inconclusive: 44.7 µM [activator, single point]"
15,C[C@@]12C(=O)Nc3ccc(Br)cc3C(=O)N1[C@H]1c3ccccc3OC[C@@H]1[C@@H]2c1ccccc1,"inconclusive: 7.08 µM [activator, partial curve]"
16,O=C(NCCc1ccc(Cl)cc1)C1(c2ccccc2)CC1,inactive
17,Cc1ccc(N2CCN(C(=O)c3c(C)oc4ncnc(N5CCCCC5)c34)CC2)c(C)c1,"inconclusive: 20 µM [activator, single point]"
18,O=C(Nc1ccc(F)cc1)OCc1cn(Cc2c(F)cccc2F)nn1,"inconclusive: 11.2 µM [activator, single point]"
19,CCOc1ccc(OCC)c(NC(=O)CN(C)S(=O)(=O)c2cccc3nsnc23)c1,"inconclusive: 50.1 µM [activator, single point]"
20,O=C(NCc1ccccc1Cl)C1CCCN(C(=O)c2cnn(-c3ccc(F)cc3)c2-n2cccc2)C1 (centres undefined),"inconclusive: 12.6 µM [activator, partial curve]"
21,CCOc1ccccc1NC(=O)c1cc(=O)[nH]c2ccc(S(=O)(=O)N3CCOCC3)cc12,"inconclusive: 44.7 µM [activator, single point]"
22,C#CCOCCOCCOCCNc1nc(N2CCN(C(=O)CCCCCCCCCCNC(=O)[C@H]([C@@H](C)CC)n3cc(CCCCN=C(N)N)nn3)CC2)nc(N2CCN(C(=O)CCCCCCCCCCNC(=O)[C@H](CO)n3cc(CCCCCN)nn3)CC2)n1,"inconclusive: 15.8 µM [activator, partial curve, poor fit]"

row,SMILES,Potency
1,COc1ccc(/C=N/N=C2/NC(=O)C(CC(=O)NC(N)=O)S2)cc1 (centres undefined),"inconclusive: 39.8 µM [activator, partial curve, poor fit]"
2,Cc1ccc(C(=O)CC(=O)c2ccccc2)cc1,inactive
3,Cc1cc(/C=N/NC(N)=S)c(C)n1-c1ccc(Cl)cc1,"inconclusive: 50.1 µM [activator, single point]"
4,CC(=O)Nc1ccc(C(=O)CSc2nnnn2C2CCCC2)cc1,"inconclusive: 35.5 µM [activator, partial curve, poor fit]"
5,O=C(C(=O)N1CCC(Cc2ccccc2)CC1)c1cccc(Br)c1,inactive
6,Cc1cc(NC(=O)COC(=O)c2nccnc2N)n(-c2ccccc2)n1,inactive
7,CCCC1=Nc2cc(C(=O)NC3CCCCC3)ccc2Sc2ccc(C)cc21,inactive
8,Cc1cc(C)c2c(=O)c3c(oc2c1)C(=O)N(CCCOC(C)C)C3c1ccccc1F (centres undefined),inactive
9,COc1ccc(CNC(=O)c2ccc(N3CCC4(CC3)CC(c3ccc(Cl)cc3)=NO4)c([N+](=O)[O-])c2)cc1,"inconclusive: 31.6 µM [activator, single point]"
10,C=CC(=O)Nc1cccc(Oc2cc(Cl)nc3[nH]ccc23)c1,"inconclusive: 28.2 µM [activator, single point]"
11,COc1ccc(C)cc1NC(=O)Cn1cc(S(=O)(=O)N2CCC(C)CC2)c2ccccc2c1=O,inactive
12,CCC(=O)N1c2ccccc2CC1C(=O)NCCN1CCN(c2cc(Cl)ccc2C)CC1 (centres undefined),inactive
13,CCOc1ccc(NC(=O)c2c(NCc3cc(OC)c(OC)cc3OC)sc3c2CCCC3)cc1,"inconclusive: 44.7 µM [activator, single point]"
14,CCN(C(=O)C(NS(=O)(=O)c1ccc(Br)s1)c1ccccc1)c1ccc(C)c(C)c1 (centres undefined),inactive
15,CC(=O)c1ccc(N2CCC(c3cc(-c4ccc(Cl)cc4Cl)n[nH]3)CC2)c([N+](=O)[O-])c1,"inconclusive: 35.5 µM [activator, partial curve, poor fit]"
16,CCCCCCNC(=O)c1cc(-c2ccco2)nc2ccccc12,"inconclusive: 39.8 µM [activator, partial curve, poor fit]"
17,CN(C(=O)c1cccc(NC(=O)Cc2ccc(NC(=O)C3CCN(S(=O)(=O)c4cccc([N+](=O)[O-])c4)CC3)cc2)c1)C1CCCCC1,"inconclusive: 22.4 µM [activator, partial curve, poor fit]"
18,CCOc1cc(C(=O)OCc2cccc(OC)c2OC)ccc1OCC(=O)N1CCOCC1,"inconclusive: 56.2 µM [activator, partial curve, poor fit]"
19,C[C@@H](C(=O)NCCc1ccc(F)cc1)N1C(=O)N2CCc3c([nH]c4ccccc34)[C@@]2(C)C1=O,"inconclusive: 35.5 µM [activator, single point]"
20,O=C(Nc1nc2ccccc2n1CCN1CCOCC1)c1ccccc1,inactive
